Publication PMC12136788
Some of the results follow.

T1: UNK ZnF1-3 (human, UniProt Q9C0B0 31-174)
T1 sequence: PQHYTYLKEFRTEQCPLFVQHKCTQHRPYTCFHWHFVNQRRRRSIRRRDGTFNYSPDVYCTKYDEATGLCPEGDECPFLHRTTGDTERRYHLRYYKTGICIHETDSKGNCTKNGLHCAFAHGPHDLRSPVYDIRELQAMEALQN

B1: chr1:39494447:39494448:+_ENSG00000168653_ENST00000372967|hu_mus|hu_hu_hu_mus_False|28_78 (ssRNA)
RNA: GGGAGUUCUACAGUCCGACGAUCGCACCGAGCGGCGUUCUUAUAGGGCUGUUCUGCACUCUGGAUUAUAAAGUGCCGGUCCAGGCUGAUGCCCAGCUUUUUCUGUAUGUCCAAGAAAGGCAUGGCUCUGCAGUGCCCUUGUCACAACAGAGGAUUGAGCAUCA
B2: chr12:46321692:46321693:-_ENSG00000139218_ENST00000369367|hu_hu|motif|central (ssRNA)
RNA: GGGAGUUCUACAGUCCGACGAUCGCUCUCUAUAAGCUCCUCUGUUUUUAGUGUAAAAUCUUUAUGUUCAGUAAUUUCGGCGGGGGAACUCUCUGUUAUUUUUUCUUCAUUAACCACUGACUCUACAUUCUCAGAUAAGUCACUCAACAGAGGAUUGAGCAUCA
B3: 103279366_103279486_885_CDS_ENSG00000134900_ENST00000376065|human|control|control (ssRNA)
RNA: GGGAGUUCUACAGUCCGACGAUCUGUGCUUAGUCUUGUAUCACCAAUCUUGAUGGAAAGAAUUUGAGCACCAGGAGCUACCCCAUUCCGUUCAGGUUCUUCUGGAAAGUGUCCAGCAGCUAUACUAGCUACAUGUGUCCCAUGCAACAGAGGAUUGAGCAUCA
B4: chr3:149686237:149686238:-_ENSG00000070087_ENST00000452853|perfect_dup|motif|central (ssRNA)
RNA: GGGAGUUCUACAGUCCGACGAUCCUCCCCACCUUGACUCUUUGUCCGGAUGUCCAUUGUGCAGUCACCAUCAACGUAUAGGCGGUCUCUGAUCACAGAACACUUCUUUGCUCCAAGAGUCAAACCGUUGGUAAAGAAACCUUCCAACAGAGGAUUGAGCAUCA
B5: chr17:65740002:65740003:+_ENSG00000130935_ENST00000581375|hu_hu|hu_hu_hu_mus_False|58_98 (ssRNA)
RNA: GGGAGUUCUACAGUCCGACGAUCAACAAAUCUUUCUCUGGAUGAAGAACAGGAAGAUUCAUAUUAAAAAAAAUAUAUGUCUAUGAAGUUAGGUGUGGUGGCCACACCUUUACUCCCAGCACUUUGGGAGGUGGAUCUCUGAGUCAACAGAGGAUUGAGCAUCA
B6: 72633974_72634094_1624_3pUTR_ENSMUSG00000002341_ENSMUST00000002412|mouse|control|control (ssRNA)
RNA: GGGAGUUCUACAGUCCGACGAUCGCUCUGCUACCUCAGGCAGCUGGUCUUCUGGGCCCUGCUGCUGGAAGUGUCGACCAUUCAACCCUUUAAAGCGGCCCCUCCUCAUCGUGGGGGUGGGUGCUACCUGUGUGCCCAAGGGUGCAACAGAGGAUUGAGCAUCA
B7: chr5:40767622:40767623:-_ENSG00000132356_ENST00000397128|hu_mus|hu_hu_hu_mus_False|28_38 (ssRNA)
RNA: GGGAGUUCUACAGUCCGACGAUCAUCUUUUAUUGCGGCCCUCUUCAUGGGAUCCACCUGCAGCAUAUGUUUCAAAAGGCUGAUUACUGAAGGGUUUAAAUAUUGAGGGGUAUAGAAGAUCCCAUCACAUAUCUUCUUAAAAAGCAACAGAGGAUUGAGCAUCA
B8: chr14:76904430:76904431:+_ENSMUSG00000022010_ENSMUST00000022587|mus_mus|mus_mus_mus_hu_True|38_88 (ssRNA)
RNA: GGGAGUUCUACAGUCCGACGAUCUGCAGCCAAAAACACCCUCGUGGCGGGAGGGAGGGAACACCAGCAGCCUUGUAUAAGCUAGAUAAAAUCUUCUAGCUGUCUGCAGCCCAGGGAGAAACAGAAAACGGCAGCCCUAAUUUACAACAGAGGAUUGAGCAUCA
B9: chr5:95130247:95130248:+_ENSG00000164292_ENST00000379982|hu_mus|motif|central (ssRNA)
RNA: GGGAGUUCUACAGUCCGACGAUCAUGCCUUUGAGCAUCUUGCAGAACCAUUUCUGCCAAUAUAUGCUAUGAGAGAAACGGACUCUGCCUUUUAUCCCAGACACCAUCGUCUCUACAUCUAGGAUAUCUUUGAUGUACAUAAUUCAACAGAGGAUUGAGCAUCA
B10: chr7:103008174:103008175:+_ENSG00000161057_ENST00000292644|hu_hu|motif|central (ssRNA)
RNA: GGGAGUUCUACAGUCCGACGAUCACUCAUUGAACGAGCGUGAAUCUUAAAUAUGUGGGUCCGACCCUCUAGAUCGGGCAAGCGGAAUUCAAUUUUUCUAUCCAAUCUCCCUGGCCUCAUCAGUGCUGGAUCCAAAGUAUCAGGCAACAGAGGAUUGAGCAUCA
B11: chr7:149068622:149068623:-_ENSMUSG00000025139_ENSMUST00000001950|mus_hu|mus_mus_mus_hu_False|38_98 (ssRNA)
RNA: GGGAGUUCUACAGUCCGACGAUCGUGAGGCCUCUGAGUGAGGUUCCUGGUCUGUCCUGGGUUAGAGUUGUUAAUAUCACGGAACAUACCAUCUAGAGAGGUUCUGCCCCGCCUGACACCUUCAUUCCCAAUGGAGAAGAAAUCCAACAGAGGAUUGAGCAUCA
B12: chr4:124323543:124323544:+_ENSG00000164056_ENST00000339241|hu_mus|FALSE|FALSE (ssRNA)
RNA: GGGAGUUCUACAGUCCGACGAUCGCCCCUGCACAGCUUCAGGCAGCCCUUGGCGGGAGGGUAGCAGAGCAAGCAGGGUAGGCACAAAGACAGGGCUCCCAUGCACAGGUAUCUGGAGCAGCAGUGGGACUGUGAACAGGAGCACAACAGAGGAUUGAGCAUCA
B13: chr4:95690885:95690886:+_ENSMUSG00000028572_ENSMUST00000156910|mus_mus|mus_mus_mus_hu_False|38_78 (ssRNA)
RNA: GGGAGUUCUACAGUCCGACGAUCUUUAGAAAAUGUUAAAUACCAUGCUAAAAUAUUGUAAUUUUAAUAUUUUAUUUUACCAGAAGUCACAGGCAAGCAGACACCAUAAGAAUAUAUGAAAAUGAAACUCAACAAUAUAACUGUCAACAGAGGAUUGAGCAUCA
B14: chr12:39756943:39756944:-_ENSG00000139116_ENST00000544797|hu_mus|hu_hu_hu_mus_False|18_48 (ssRNA)
RNA: GGGAGUUCUACAGUCCGACGAUCGGUUUGGCUGUUACCCCCAAGGGAAUCCUGCAAGAGUCUUGUCAGCUUAGAGUCUCUGUAAGGGACAUGUGUGGCUCUCUUGCUCUUGUCCCCCAAGGCACUUAUUACAUUCCCAAGAGCCAACAGAGGAUUGAGCAUCA

target: T1, UNK ZnF1-3; assay: nsRBNS (natural sequence RNA bind-n-seq); RBNS binding buffer (assumed for nsRBNS): 25 mM Tris pH 7.5, 150 mM KCl, 3 mM MgCl2, 0.01% Triton X-100, 500 ug/ml BSA, 20 U/ml SUPERase-In, 4 C; UNK is unkempt and MSI1 is Musashi-1; names of the RNAs are library labels; protein concentration not given here; high values mean tight binding

Row | Binder | binding signal
1 | B1 | 0.845 enrichment R
2 | B2 | 0.736 enrichment R
3 | B3 | 1.09 enrichment R
4 | B4 | 1.09 enrichment R
5 | B5 | 1.71 enrichment R
6 | B6 | 0.562 enrichment R
7 | B7 | 1.27 enrichment R
8 | B8 | 2.57 enrichment R
9 | B9 | 0.715 enrichment R
10 | B10 | 0.786 enrichment R
11 | B11 | 0.69 enrichment R
12 | B12 | 1.26 enrichment R
13 | B13 | 2.21 enrichment R
14 | B14 | 0.657 enrichment R
